# Assay results: PubChem BioAssay AID938 (National Center for Advancing Translational Sciences (NCATS), 2007)
# The whole screen tested about 73,000 compounds, of which about 1,800 (2.5%) were called active. Inconclusive results, whose numbers are uncertain, are shown with a selection of clear calls. Calls come from the whole dose curve; as a rule, active = well fitted activation curve with a large enough effect; inconclusive = small, poorly fitted or top-dose-only effect; inactive = no such curve, though single readings can be large or run the other way. Potencies of inconclusive entries are left out as doubtful fits.
# Assay: qHTS Assay for Agonists of the Thyroid Stimulating Hormone Receptor: Activators of Intracellular cAMP Concentrations in Parental HEK 293; note: nearly all actives have a fitted effect of over 55% in size; for activation: % of control where 0% means no effect
# Details: parental HEK293 CNG cAMP sensor, membrane potential fluorescence; activation: at 57.1 µM (top of the series) unless noted
# Method in brief: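 Parental HEK 293 cells stably expressing a cAMP-gated CNG channel were loaded with membrane potential dye containing 100 uM RO 20-1724 for 60 min. Compound added for 30 min; depolarization read as fluorescence intensity at 590 nm.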
# Potency is the fitted concentration of half-maximal effect; tags give direction and shape of the fitted curve.
SMILES,activation,Potency
COc1cc(NC(=O)CCc2ccccc2)nc(OC)n1,inactive: -3.87%,
Cc1cc(NC(=O)c2ccccc2)ncc1NC(=O)c1ccco1,inactive: -4.52%,
Cc1noc(C)c1S(=O)(=O)N(CCc1ccccc1)Cc1ccccc1,,"inconclusive [activator, partial curve]"
Cc1nc2cnc(Oc3cccc(Cl)c3)nc2n(CCc2ccccc2)c1=O,,active: 3.16 µM
CN(CCOc1ccc(C[C@H](Nc2ccccc2C(=O)c2ccccc2)C(=O)O)cc1)c1ccccn1,,"inconclusive [activator, partial curve]"
COC(=O)c1ccc(CSc2ccccc2C)o1,,"inconclusive [activator, partial curve]"
CCC(=O)Nc1cccc(-c2nc3ccccc3c(=O)o2)c1,inactive: -7.89%,
Cc1cccc(-c2noc(CN(C(=O)CCc3ccccc3)C(C)C)n2)c1,,"inconclusive [activator, partial curve]"
C=CCOC(=O)C(C#N)c1nc2ccccc2nc1N1CCN(Cc2ccc3c(c2)OCO3)CC1 (stereo not given),inactive: -88.8%,
Cc1cc(NC(=O)c2ccc(Cl)cc2)no1,,"inconclusive [activator, single point]"
CCOC(=O)c1sc2ncn(/N=C/c3ccccn3)c(=O)c2c1C,inactive: 1.16%,
CC1=C(C(=O)Nc2ccccc2)C(c2ccco2)C(C#N)=C(SCC(=O)Nc2cccc(C)c2C)N1 (stereo not given),inactive: 4.84%,
C[N+](C)(C)/N=C\c1ccc(O)c(O)c1,inactive: -1.34% [at 11.4 µM],
CCCCn1c(CCC(=O)O)ccc1-c1cccs1,,"inconclusive [activator, full curve, poor fit]"
CCCCCCCCCCCCCCCCCC(=O)NC[C@@H](COP(=O)([O-])OCC[N+](C)(C)C)OCC,inactive: -2.04%,
COC(=O)[C@@]1(Cc2ccc(F)cc2)[C@H]2c3cc(C(=O)N(C)C)n(CCN4CCOCC4)c3C[C@H]2CN1C(=O)c1ccccc1,,"inconclusive [activator, partial curve]"
COc1ccc(-c2nnc(SCC(=O)OC3CCCCC3)o2)cc1OC,,"inconclusive [activator, single point]"
Cc1cccc(C2Nc3ccccc3C(=O)N2CCc2ccccc2)n1 (stereo not given),,"inconclusive [activator, partial curve]"
O=C(C(Cc1ccccc1)n1cccc1)N1CCc2ccccc21 (stereo not given),,"inconclusive [activator, partial curve]"
Cc1ccc(CNc2ccc(N3CCOCC3)cc2)s1,inactive: -7.89%,
COc1cccc(C(=O)N2CCN(C3CCC(c4ccccc4)CC3)CC2)c1 (stereo not given),,"inconclusive [activator, single point]"
CC(C)Cc1nnc(NC(=O)CCN2C(=O)c3ccccc3C2=O)s1,,"inconclusive [activator, full curve]"
COc1ccccc1CNc1ccnc(-c2cccc(C#N)c2)n1,inactive: 26.4%,

SMILES,activation,Potency
c1csc(-c2csc3nc(CN4CCOCC4)nc(NCc4ccc5c(c4)OCO5)c23)c1,,active: 12.6 µM
CCOC(=O)c1nnn(-c2nc(N3CCCC3)nc(N3CCCC3)n2)c1-c1ccccc1,,"inconclusive [activator, partial curve]"
Cc1cnc(CNc2ncncc2-c2cccc(C#N)c2)cn1,,"inconclusive [activator, single point]"
CN(C(=O)c1ccc2c(=O)n3c(nc2c1)CCCCC3)c1ccccc1,inactive: -1.51%,
Cc1ccc(C(=O)Nc2ccc(Cl)cn2)cc1,,"inconclusive [activator, single point]"
CCOC(=O)c1nnn(-c2nonc2N)c1CSc1ccc(C)cc1,,"inconclusive [activator, partial curve]"
CN(CCCNC(=O)c1ccc(N2CCCC2=O)cc1)c1ccccc1,,"inconclusive [activator, single point]"
NCCc1nc(-c2nc(C(=O)O)cs2)cs1,inactive: -8.44% [at 11.4 µM],
COc1ccc(-c2nnc(SCC(=O)Nc3cc(F)ccc3C)o2)cc1,,"inconclusive [activator, single point]"
CCOC(=O)C1CCCN(C(=O)c2cc(=O)c3ccccc3o2)C1 (stereo not given),inactive: 9.75%,
Cn1c(SCC(=O)NCc2ccco2)nc2ccccc2c1=O,inactive: 20.8%,
CCCOc1cccc(NC(=O)c2c(-c3ccccc3)noc2C)c1,,"inconclusive [activator, partial curve]"
CCC1Oc2ccc(C)cc2N(Cc2cccc(C)c2)C1=O (stereo not given),,"inconclusive [activator, partial curve]"
COc1ccc(Cl)cc1S(=O)(=O)NCc1cccs1,,"inconclusive [activator, single point]"
O=C(CCN1C(=O)c2ccccc2C1=O)NCc1ccncc1,,"inconclusive [activator, single point]"
O=C(Nc1ccc2c(c1)OCCO2)c1ccc(Br)c(S(=O)(=O)N2CCOCC2)c1,,"inconclusive [activator, single point]"
Cc1ccc(C)c(Cn2c(CO)nc3ccccc32)c1,,active: 25.1 µM
CCCCNC(=O)C(c1ccc(OCC(=O)OC)c(C(=O)OC)c1)N(Cc1ccccn1)C(=O)CCCCCN1C(=O)NC(c2ccc(-c3ccccc3)cc2)C(C(=O)OCc2ccccc2)=C1C (stereo not given),,"inconclusive [activator, single point]"
CCCn1c(=S)[nH]c2cc(C(=O)N3CCCC(C(=O)OCC)C3)ccc2c1=O (stereo not given),,"inconclusive [activator, partial curve]"
CCOc1cc(C2C(C(=O)OC)=CN(C3CCCC3)C=C2C(=O)OC)cc(Br)c1O,,"inconclusive [activator, partial curve]"
COc1ccc(OCCN2CCN(C3CC(=O)N(CCC(C)C)C3=O)CC2)cc1 (stereo not given),,"inconclusive [activator, single point]"
CC1CCCCC1NC(=O)CSc1nnc(-c2ccccc2)n1N (stereo not given),,"inconclusive [activator, full curve]"
